Source: PubChem BioAssay AID1671193 (National Center for Advancing Translational Sciences (NCATS), 2021)
Hit rate of the full screen: of about 150,000 compounds, about 180 (0.12%) were called active. The inconclusive results got no clear call from the source; some entries with a clear call stand among them for comparison. Calls come from the whole dose curve; as a rule, active = well fitted cell-killing curve with a large enough effect; inconclusive = small, poorly fitted or top-dose-only effect, or effect the other way; inactive = flat fitted curve, though single readings scatter. Potencies beside an inconclusive call are fits to weak or partial responses and may not hold up.

Assay: GF-AFC viability counterscreen for inhibitors of alpha-synuclein gene (SNCA) expression; note: nearly all actives have a fitted effect of over 30% in size
Conditions: HEK-293-SNCA-luc viability, GF-AFC fluorescence, 24 h; series mostly up to 57.1 µM
In short: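 HEK-293-SNCA-luc cells (1500/well) plated 24 h, then exposed 24 h to a dilution series; GF-AFC added 30 min at 37C, fluorescence 405/540 nm; normalised to medium-only and DMSO wells, Hill fit.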
Potency is the fitted concentration of half-maximal effect; tags give direction and shape of the fitted curve.

SMILES | Potency
CC1=C[C@@H](CNC(=O)COCC(=O)O)[C@H](C(C)C)C[C@H]1Cc1nc2ccc(C)cc2[nH]1 | inactive
O=S(=O)(c1ccc(-c2csc(=Nc3ccc(F)cc3)n2CCCCCCO)cc1)N1CCCC1 | inconclusive: 31.6 µM [cytotoxic, single point]
CC[C@H](Nc1ncnc2nc[nH]c12)c1nc2cccc(F)c2c(=O)n1-c1ccccc1 | inconclusive: 0.713 µM [cytotoxic, full curve, poor fit]
COc1ccccc1-n1cc(C(=O)NC[C@@H]2C[C@H](F)CN2)cn1 | inconclusive: 2.51 µM [rising, full curve, poor fit]
Cc1ccccc1C(=O)NC1CCN(c2cc(-c3ccccc3)[nH]n2)CC1 | inactive
CCN(Cc1ccccc1)C(=O)CN1C(=O)COc2ccc(S(=O)(=O)NC3CCCC3)cc21 | inconclusive: 10 µM [cytotoxic, partial curve]
O=[S+]1([O-])NC2(CCN(CC3CCCCC3)CC2)COc2ccccc21 | inactive
CCN1CCN(c2ncnc3c2cnn3-c2ccc(C)c(C)c2)CC1 | inconclusive: 10 µM [cytotoxic, partial curve, poor fit]
O=C(CN1C(=O)COc2ccc(S(=O)(=O)NC3CCCC3)cc21)Nc1ccc(Cl)cc1 | inconclusive: 10 µM [cytotoxic, partial curve, poor fit]
Cc1cccc(OCC(=O)NC(C)C(=O)N2CCN(c3ccccn3)CC2)c1 (centres undefined) | inactive
CC(C)CNc1ccc2c(n1)C(C)(C(=O)Nc1ccncc1)CN(Cc1ccccc1)C2 (centres undefined) | inconclusive: 39.8 µM [cytotoxic, single point]
CN1CCN(c2ncc3nc(-c4cccs4)c(=O)n(Cc4cccs4)c3n2)CC1 | inconclusive: 15.8 µM [rising, partial curve, poor fit]
O=C(Cc1ccccc1F)N1CC(Oc2ccc(-c3noc(-c4cccnc4)n3)cc2)C1 | inconclusive: 7.94 µM [cytotoxic, full curve, poor fit]
Cc1ccc(CN2COc3ccc4c(-c5ccccc5)cc(=O)oc4c3C2)cc1 | inconclusive: 25.1 µM [rising, partial curve, poor fit]
Cc1cc(=O)n(CC(=O)NCCc2ccc(Cl)cc2)c(N2CCc3ccccc3C2)n1 | inconclusive: 39.8 µM [cytotoxic, single point]
COc1ccccc1NC(=O)CN1C(=O)C2(SCC(=O)N2c2ccc(F)c(F)c2)c2ccccc21 (centres undefined) | inconclusive: 39.8 µM [cytotoxic, single point]
CN(C(=O)c1ccc(-c2nnc3ccc(NC(=O)C4CCC4)cn23)cc1)C1CCCCC1 | inactive
O=C(CSc1nc(-c2cccc(F)c2)[nH]c1-c1ccccc1)Nc1ccc2c(c1)OCCO2 | inconclusive: 22.4 µM [cytotoxic, partial curve, poor fit]
O=C(c1ccc2c(c1)OCO2)N1CCCN(c2cc(-c3ccc(Br)cc3)[nH]n2)CC1 | inconclusive: 39.8 µM [cytotoxic, single point]
CCc1ccc(NC(=O)CCCc2nnc3n(CC(C)C)c(=O)c4sccc4n23)cc1 | inconclusive: 2 µM [cytotoxic, full curve, poor fit]

SMILES | Potency
CC(=O)Nc1ccc([C@H](C)C(=O)Nc2ncc(C(C)C)s2)cc1 | inconclusive: 13.4 µM [cytotoxic, partial curve, poor fit]
COc1cccc(NC(=O)NC[C@H]2O[C@H](Cc3cc(-c4ccc(F)cc4)on3)CC[C@@H]2O)c1 | inconclusive: 44.7 µM [cytotoxic, single point]
CCc1ccc(-n2c(=O)c3sc4ccccc4c3n(CC(=O)N3CCCC3)c2=O)cc1 | inconclusive: 12.6 µM [cytotoxic, partial curve, poor fit]
CN(CCc1ccccn1)C(=O)c1ccc(N2CC3CC(C2)[C@H]2CCCC(=O)N2C3)nc1 (some centres undefined) | inactive
C=C1C(=O)O[C@H]2C3=C(C)CCC[C@]3(C)C(=O)C[C@@H]12 | inconclusive: 33.6 µM [cytotoxic, partial curve, poor fit]
Cc1ccc2[nH]c(=O)cc(C(=O)N3CCOC(CCCC(C)C)C3)c2c1 (centres undefined) | inactive
CCn1cnnc1CC1CCCN(C(=O)NCc2ccccc2)C1 (centres undefined) | inconclusive: 2.82 µM [cytotoxic, full curve, poor fit]
CCc1cccc(NC(=O)CN2Cc3ccccc3C2=O)c1 | inconclusive: 10 µM [cytotoxic, partial curve]
COc1cccc(-c2ccc3c(N)c(C(=O)Nc4cc(F)ccc4F)sc3n2)c1 | inconclusive: 14.1 µM [rising, partial curve]
CC1=C[C@@H](CN2CCN(CCO)CC2)[C@H](C(C)C)C[C@H]1Cc1nnc(-c2ccc(N(C)C)cc2)o1 | inconclusive: 39.8 µM [cytotoxic, single point]
CCOC(=O)CN1CCN(C(=O)CCc2cc3cc(OC)ccc3[nH]c2=O)CC1 | inconclusive: 6.31 µM [rising, partial curve, poor fit]
COc1cc(CN2CCN(Cc3ccc(-n4cccn4)cc3C)CC2CCO)cc(OC)c1 (centres undefined) | inconclusive: 3.16 µM [cytotoxic, full curve, poor fit]
COC[C@@H]1CN(C(=O)c2ccc(C)cn2)C[C@H]1c1nc(C2CC2)no1 | inconclusive: 39.8 µM [cytotoxic, single point]
COC(=O)c1ccc2nc(C[C@@H]3C[C@@H](C(C)C)[C@H](CNCc4ccc(OC)cc4O)C=C3C)[nH]c2c1 | inconclusive: 20 µM [cytotoxic, single point]
CCOc1ccccc1C1NC(=O)N(CC(=O)N(CC)c2ccccc2)C2=C1C(=O)OC2 (centres undefined) | inconclusive: 1.58 µM [cytotoxic, full curve, poor fit]
O=C(C[C@@H]1CCNC[C@@H]1Cc1cc(COc2ccccc2)on1)Nc1ccccc1 | inconclusive: 56.2 µM [cytotoxic, single point]
CCOC(=O)c1cc2c(=O)n3ccccc3nc2n(CC2CCCO2)c1=NC(=O)c1ccc(C)cc1 (centres undefined) | inconclusive: 25.1 µM [rising, partial curve]
O=C(NCCc1ccccc1)c1ccc(CSc2nc3ccncc3n2Cc2ccc(F)cc2)cc1 | inconclusive: 20 µM [cytotoxic, partial curve, poor fit]
O=C(NCCc1ccc(Cl)cc1)c1ccc2nc(-c3cccnc3Cl)oc2c1 | inactive
COc1ccc(-c2nc(SCc3cc(=O)c4cc(C)ccc4[nH]3)n[nH]2)cc1 | inconclusive: 39.8 µM [cytotoxic, single point]

SMILES | Potency
CCOc1ccccc1N1CC(c2nc3ccccc3n2Cc2c(C)cc(C)cc2C)CC1=O (centres undefined) | inconclusive: 6.31 µM [rising, single point]
O=C(NCc1ccccc1Cl)C1CCN(C(=O)c2ncn3c2COC(c2ccc(F)cc2)C3)CC1 (centres undefined) | inactive
COc1ccc(-c2nc(CC3CCN(C(=O)c4n[nH]c(=O)c5ccccc45)C3)no2)cc1 (centres undefined) | inconclusive: 15.8 µM [cytotoxic, partial curve, poor fit]
O=C1c2c(nc(COc3ccc4c(c3)OCO4)n2Cc2ccccc2)NCCN1Cc1ccccc1 | inconclusive: 31.6 µM [cytotoxic, single point]
CN1C[C@@H](NC(=O)c2ccc(C(C)(C)C)cc2)C[C@H]1c1nc(-c2ccc3c(c2)OCO3)no1 | inconclusive: 28.2 µM [cytotoxic, single point]
O=C(O)CCn1ncc2cc(OCC3CCN(C(=O)CC4CC4)CC3)ccc21 | inactive
Cc1ccc([S+](=O)([O-])NC2CCN(Cc3cccc(-c4ccc(F)c(F)c4)c3)CC2)cc1 | inactive
CCOC(=O)c1cc2c(=O)n3ccccc3nc2n(Cc2ccco2)c1=NC(=O)c1c(F)cccc1Cl | inconclusive: 25.1 µM [rising, partial curve]
CC1CCN(C(=O)C[C@@H]2c3nc(NC(=O)CC(C)(C)C)sc3C[C@@H]3[C@](C)(CO)[C@H](O)CC[C@]32C)CC1 | inconclusive: 31.6 µM [cytotoxic, single point]
O=C(Nc1ccc2nc(SCC(=O)N3CCCC3)sc2c1)c1cccc(Cl)c1 | inconclusive: 39.8 µM [cytotoxic, single point]
O=C(NCc1ccccc1)c1nc(S(=O)(=O)Cc2ccccc2)ncc1Cl | inconclusive: 31.6 µM [cytotoxic, single point]
O=C(Nc1ccc2c(c1)OCCO2)N1CCCC(Cn2cnc3cccnc32)C1 (centres undefined) | inactive
Cc1cccn2c(=O)c3cc(C(=O)NCc4cccnc4)c(=N)n(CCCO)c3nc12 | inconclusive: 25.1 µM [rising, partial curve]
O=C1NCCCCCN(C(=O)c2ccsc2)[C@H]2CCC[C@@H]12 | inconclusive: 28.2 µM [cytotoxic, partial curve, poor fit]
Cc1ccccc1-n1nc(-c2c(C)nc3scc(CC(=O)NCC(C)C)n3c2=O)cc1C | inactive
COc1ccccc1Nc1ccnc(N2CCN(C(=O)c3ccccc3Cl)CC2)n1 | inconclusive: 3.55 µM [cytotoxic, full curve, poor fit]
COc1ccc(-c2nnc(SCC(=O)NC3CCCCC3)nc2-c2ccc(OC)cc2)cc1 | inconclusive: 2.24 µM [rising, partial curve, poor fit]
CCO[C@H]1CN(C(=O)c2nc3ccccc3[nH]c2=O)C[C@@H]1O | inactive
COc1ccc(C(=O)Nc2ccc3c(c2)CCCN3C(=O)c2cccs2)c(OC)c1 | inconclusive: 17.8 µM [cytotoxic, single point]
